# US20230002478A1 (TWIST BIOSCIENCE, published 2023)
# B1: bispecific monoclonal antibody 493-004 (bispecific antibody)
# chain: EVQLVESGGGLVQPGGSLRLSCAASGFTFSPSWMGWFRQAPGKEREFVATINEYGGRNYADSVKGRFTISADNSKNTAYLQMNSLKPEDTAVYYCARVDRDFDYWGQGTLVTVSSGGGGS[no letters for human IgG1 Fc with C220S (EU numbers)]GGGSGGGGSASEVQLVESGGGLVQPGGSLRLSCAASGSTFSINAMGWFRQAPGKEREFVAGITSSGGYTNYADSVKGRFTISADNSKNTAYLQMNSLKPEDTAVYYCAADGVPEYSDYASGPVWGQGTLVTVSS
# Key:
# [1] = biological target: biotinylated SARS-CoV-2 spike trimer, Delta (SARS-CoV-2); assay: AlphaLISA, inhibition of ACE2-muFc / biotinylated spike complex
# [2] = biological target: biotinylated SARS-CoV-2 spike trimer, Omicron (B.1.1.529) (SARS-CoV-2); assay: as above
binder,measurement,setting,value
B1,IC50,[1],8.8 nM
same,IC50,[2],9.04 nM
